Measurements reported in a compilation of properties of binary mixtures (doi:10.1021/acs.jpcb.0c03296).
Some of these densities may be calculated back from excess volumes.

Assay: xn = mol fraction of the nth substance listed
Conditions: 100 kPa

C[N+](C)(C)CCO.O=S(=O)([N-]S(=O)(=O)C(F)(F)F)C(F)(F)F + OCCO
mass density [kg/m3]
Conditions	298.1 K	303 K	308.1 K	313 K	318.1 K	323 K	328.1 K
x1 = 0.14	1278.8	–	1270.7	1266.6	1262.5	–	1254.2
x1 = 0.2	1319.6	1315.4	1311.2	1307	1302.7	1298.5	1294.1
x1 = 0.333	1384.9	1380.6	1376.2	1371.8	1367.4	1363	1358.6
